Hit rate of the full screen: of about 94,000 compounds, about 4,000 (4.3%) were called active. Inconclusive results, whose numbers are uncertain, are shown with a selection of clear calls. Calls come from the whole dose curve; as a rule, active = well fitted inhibition curve with a large enough effect; inconclusive = small, poorly fitted or top-dose-only effect; inactive = no such curve, though single readings can be large or run the other way. Where the call is inconclusive, the potency comes from a doubtful curve fit.
assay: Cytotoxic Profiling in NIH 3T3 Cell Line of Diverse Libraries Using Quantitative High-Throughput Screening; settings: NIH 3T3 viability, CellTiter-Glo ATP luminescence, 48-72 h; series mostly up to 96.7 µM; note: nearly all actives have a fitted effect of over 55% in size
In short: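 Luminescent ATP readout (CellTiter-Glo, 10 min RT) after 48 or 72 hr compound exposure of NIH 3T3 cells seeded at 400 cells/well in 1536-well format; quantitative HTS.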
Potency is the fitted concentration of half-maximal effect; tags give direction and shape of the fitted curve.

Row | SMILES | Potency
1 | Cc1oc(-c2ccccc2)nc1CC(=O)NCc1cc2n(n1)CCNC2 | inactive
2 | Cn1nc(C2CCNC2)c2c(C(=O)NCc3ccc(F)cc3)cc(C3CC3)nc21 (stereo not drawn) | inconclusive: 70.8 µM [inhibitor, single point]
3 | CN(C)C[C@@H]1CN(c2ncccn2)C[C@H]1NC(=O)Cc1ccsc1 | inactive
4 | CNc1ccc(-c2noc([C@@H]3CCCN3C3CCC3)n2)cn1 | inactive
5 | COCCOC(=O)C1=C(C)N=C2SC=C(CC(=O)N3CCCCC3C)N2C1c1ccccc1 (stereo not drawn) | inactive
6 | COc1ccc(CNC(=O)CC[C@H]2CNC(=O)[C@@H]3[C@@H](CCN3C(C)C)N2C)cc1 | inactive
7 | Cc1ccc(-c2ccccc2CN2CCC(C(=O)NCC(F)(F)F)CC2)cc1Cl | inconclusive: 31.6 µM [inhibitor, full curve]
8 | Cc1cn2nnc(C(=O)NCc3ccc(C(C)C)cc3)c2c(=O)[nH]1 | inconclusive: 70.8 µM [inhibitor, single point]
9 | O=C1CC2(CCN(C(=O)C3CCCN(C(=O)c4ccccc4)C3)CC2)Oc2ccccc2N1 (stereo not drawn) | inconclusive: 44.7 µM [inhibitor, partial curve, poor fit]
10 | COc1cccc(CNC(=O)C2CN(c3cccc(Cl)c3)C(=O)N2)c1 (stereo not drawn) | inconclusive: 39.8 µM [inhibitor, partial curve, poor fit]
11 | O=C(NCc1nnc2cc(-c3nc(C4CC4)no3)ccn12)C1CCC1 | inconclusive: 6.31 µM [inhibitor, full curve, poor fit]
12 | O=C(c1ccc(F)cc1)N1CCC2(CC1)CC(c1cccnc1)=NO2 | inconclusive: 100 µM [inhibitor, single point]
13 | CC(C)CC(=O)N1CC(n2cc(COCC3CC3)nn2)C1 | inactive
14 | CCN1c2cc(C(=O)Nc3cccc(OC)c3)ccc2C(=O)N2CCCCCC21 (stereo not drawn) | inconclusive: 39.8 µM [inhibitor, partial curve, poor fit]
15 | COc1cccc(CCC(=O)N2CCC(Cc3nc(-c4cccc(OC)c4)no3)CC2)c1 | inconclusive: 50.1 µM [inhibitor, partial curve, poor fit]
16 | O=C(CC[C@H]1NC(=O)c2ccccc2NC1=O)Nc1n[nH]c(CCc2ccccc2)n1 | inactive
17 | Cn1cccc1CN1CCC2(C1)C(=O)Nc1ccccc12 (stereo not drawn) | active: 100 µM
18 | CN(C)C(=O)N1CCC2(CC1)CN(C(=O)c1ccnc(N)c1)Cc1ccccc1O2 | inactive
19 | Cc1noc(C)c1-c1cc2cc(C(C)C)oc2c(-c2cccnc2)n1 | inconclusive: 56.2 µM [inhibitor, partial curve, poor fit]
20 | O=C(c1ccoc1)N1CCC(n2cc(-c3nc(-c4ccccc4)no3)nn2)C1 (stereo not drawn) | inconclusive: 35.5 µM [inhibitor, partial curve]
21 | CC(C)C(=O)N1CCCC(c2nn(C)c(=O)n2C(C)C)C1 (stereo not drawn) | inactive
22 | Cc1cnc(C(=O)NC2C[C@H]3CC[C@@H](C2)N3C(=O)c2ccc(C)c(C)c2)cn1 (stereo partly drawn) | inactive

Row | SMILES | Potency
23 | CCCC(=O)N1Cc2ccccc2CC2(CCCCN2Cc2ccccn2)C1 (stereo not drawn) | inconclusive: 50.1 µM [inhibitor, partial curve, poor fit]
24 | O=C(Cc1ccccn1)N1CCC2(CC1)CCN(Cc1cccs1)c1ccccc1O2 | inconclusive: 50.1 µM [inhibitor, partial curve, poor fit]
25 | COC[C@@H]1CN(Cc2cccc(C#N)c2)C[C@H]1C(=O)N(C)C | inactive
26 | CCn1c(CN(C)Cc2nc3c(C)cccc3[nH]2)nnc1C1CC(N)C1 (stereo not drawn) | inactive
27 | O=C(Cc1cccc(Cl)c1)N1CCCN(c2ccc3nnc(-c4ccccc4)n3n2)CC1 | inconclusive: 50.1 µM [inhibitor, partial curve, poor fit]
28 | Cn1ncc2c(C(=O)NCC3CC3)cc(-c3ccc(Cl)cc3Cl)nc21 | inconclusive: 50.1 µM [inhibitor, partial curve, poor fit]
29 | O=C1[C@H]2CN(Cc3ccc(F)c(Cl)c3)C[C@H]2C(=O)N1Cc1ccc2c(c1)OCO2 | inconclusive: 44.7 µM [inhibitor, partial curve, poor fit]
30 | COc1cccc(S(=O)(=O)N2CCC3(CC2)CC(N2CCOCC2)CCO3)c1 (stereo not drawn) | inconclusive: 44.7 µM [inhibitor, partial curve, poor fit]
31 | O=C(NCc1nnc2ccc(-c3ccccc3)nn12)c1cc2ccccc2[nH]1 | inconclusive: 50.1 µM [inhibitor, single point]
32 | O=C1COc2ccc(Nc3ccccc3)nc2CN1CCOc1ccccc1 | inconclusive: 50.1 µM [inhibitor, partial curve]
33 | COc1cccc(C(=O)Nc2ccc3ncnc(N4CCCCC4)c3c2)c1 | inconclusive: 50.1 µM [inhibitor, partial curve, poor fit]
34 | Cc1ccc(-c2ncc(C(=O)Nc3ccc(F)cc3C)c(-c3ccncc3)n2)cc1 | active: 22.4 µM
35 | CSCCNC(=O)c1nc2sccn2c1Br | inconclusive: 79.4 µM [inhibitor, partial curve, poor fit]
36 | Cc1nn(-c2ccc(C(C)C)cc2)c(C)c1[C@@H]1C=C[C@@H](NC(=O)NCc2ccccc2)C1 | active: 25.1 µM
37 | COc1ccc(-c2nccc3c(=O)cc(N4CCN(C)CC4)oc23)cc1OC | inconclusive: 11.2 µM [inhibitor, full curve, poor fit]
38 | C=CCNC(=O)N1CCC(O)(c2csc(CN(CC)CC)n2)CC1 | inactive
39 | Cn1nc(C2CC2)n(C2CCN(C(=O)CCCc3ccccc3)CC2)c1=O | inactive
40 | O=C(Cc1ccccc1)Nc1ccnn1C1CCN(Cc2cccc3nonc23)CC1 | inactive
41 | CCCc1noc(-c2cn(C3CCN(C(=O)c4cc(F)ccc4Cl)CC3)nn2)n1 | inconclusive: 31.6 µM [inhibitor, partial curve]
42 | CCOc1ccccc1NC(=O)CN1C(=O)C(c2ccccc2)=NC12CCCC2 | inconclusive: 44.7 µM [inhibitor, partial curve, poor fit]
43 | O=C(NC1CCN(c2nc3ncccc3o2)CC1)c1cccc(Cl)c1 | inconclusive: 50.1 µM [inhibitor, partial curve, poor fit]

Reference: PubChem BioAssay AID1345082 (National Center for Advancing Translational Sciences (NCATS), 2018)
